Results on 76 variants are retold here after a collection of fitness landscapes (doi:10.1016/j.celrep.2020.107928).

Over roughly 81,000 sequences, “one-hybrid fitness for binding NBS DNA” has its median near -0.1; the highest 2% begin near 0.36. The list shows a part of the results.

First the molecules themselves.
B1: Caulobacter ParB omega fusion; a variant is named by its letters at X, in order, B8GW30 (parent)
chain: MESVVVGEPGMSEGRRGLGRGLSALLGEVDAAPAQAPGEQLGGSREAPIEILQRNPDQPRRTFREEDLEDLSNSIREKGVLQPILVRPSPDTAGEYQIVAGERAWRAAQRAGLKTVPIMVRELDDLAVLEIGIIENVQRADLNVLEEALSYKVLMEKFERTQENIAQTIGKSXSHVANXMRLLXLPDEVQSYLVSGELTAXHARAIAAAADPVALAKQIIEGGLSVRETEALARKAPNLSAGKSKGGRPPRVKDTDTQALESDLSSVLGLDVSIDHRGSTGTLTITYATLEQLDDLCNRLTRGI

Variants of B1 are the subject of the test. Nature of the test: one-hybrid fitness for binding NBS DNA (the Noc-binding site; scaled: cognate 1, non-cognate 0); higher = stronger binding. As to conditions: with NBS DNA site. In outline:
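In E. coli USO, a HIS3 reporter with its site placed 19 bp from the promoter was used to select Caulobacter ParB variants randomised at four specificity codons. Growth lasted 48 hours at 37°C on histidine-free M9 containing 0.1 mM IPTG and 5 mM 3-AT. Fitness was taken as the log change in variant-to-wild-type read ratio from Illumina sequencing of pre- and post-selection plasmids, rescaled between the non-cognate and cognate sites.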
For RIKF, the “one-hybrid fitness for binding NBS DNA” value is not above 0.2.
Regarding IPTE, the “one-hybrid fitness for binding NBS DNA” value is not above 0.2.
With RTGP, the “one-hybrid fitness for binding NBS DNA” value is not above 0.2.
For the variant CANA, the “one-hybrid fitness for binding NBS DNA” value was not above 0.2.
As for EKST, the “one-hybrid fitness for binding NBS DNA” value is not above 0.2.
As to SAPE, the “one-hybrid fitness for binding NBS DNA” value was not above 0.2.
To ARHC belongs not above 0.2; to DISS, not above 0.2.
With LGGY, the “one-hybrid fitness for binding NBS DNA” value was not above 0.2.
As for RASF, the figure is not above 0.2; as for SHNV, not above 0.2.
To LACG belongs not above 0.2; to ISAC, not above 0.2; to VHHR, not above 0.2.
As for LGPP, the figure is not above 0.2.
Turning to TCTM, the “one-hybrid fitness for binding NBS DNA” value was not above 0.2.
With VGYV, the “one-hybrid fitness for binding NBS DNA” value is not above 0.2.
TERS: the “one-hybrid fitness for binding NBS DNA” value is not above 0.2.
As for YGPT, the “one-hybrid fitness for binding NBS DNA” value is not above 0.2.
As for TTSA, the figure is not above 0.2; as for WQHC, not above 0.2; as for SFLG, not above 0.2.
For EVSY, the “one-hybrid fitness for binding NBS DNA” value was not above 0.2.
Consider QYNH, for which the “one-hybrid fitness for binding NBS DNA” value is 0.246.
To WVLV belongs not above 0.2.
Consider TGPT, for which the “one-hybrid fitness for binding NBS DNA” value was not above 0.2.
In the case of RGLE, the “one-hybrid fitness for binding NBS DNA” value is not above 0.2.
As for MMDG, the figure is not above 0.2; as for NVFS, not above 0.2; as for DACF, not above 0.2.
PQLK: the “one-hybrid fitness for binding NBS DNA” value was not above 0.2.
To SLKI belongs not above 0.2; to LLAQ, not above 0.2; to HIPP, not above 0.2.
Regarding QWLI, the “one-hybrid fitness for binding NBS DNA” value is not above 0.2.
VTHT: the “one-hybrid fitness for binding NBS DNA” value was not above 0.2.
To RTTY belongs not above 0.2; to PATN, not above 0.2.
As for QDKY, the figure is not above 0.2; as for TDFG, not above 0.2; as for QVHV, not above 0.2.
As for KSHW, the figure is not above 0.2; as for QSFR, 0.37.
In the case of PWKY, the “one-hybrid fitness for binding NBS DNA” value is not above 0.2.
To PARI belongs not above 0.2; to LQML, not above 0.2.
For the variant FLTE, the “one-hybrid fitness for binding NBS DNA” value was not above 0.2.
To LSCG belongs not above 0.2; to RLWI, not above 0.2; to CYWG, not above 0.2.
As for AFIA, the figure is not above 0.2.
As for CVSP, the figure is not above 0.2; as for PFQQ, not above 0.2.
Take TEAW: the “one-hybrid fitness for binding NBS DNA” value is not above 0.2.
To SQRM belongs not above 0.2.
Regarding TNMW, the “one-hybrid fitness for binding NBS DNA” value is not above 0.2.
To KEAR belongs not above 0.2; to PTKT, not above 0.2.
As for VKYT, the figure is not above 0.2; as for GVPS, not above 0.2.
Take RTCW: the “one-hybrid fitness for binding NBS DNA” value is not above 0.2.
Turning to RAEC, the “one-hybrid fitness for binding NBS DNA” value is not above 0.2.
Consider YATV, for which the “one-hybrid fitness for binding NBS DNA” value was not above 0.2.
As for CPSR, the figure is not above 0.2.
To TNWC belongs not above 0.2; to RAQE, not above 0.2.
To YNKI belongs not above 0.2; to ITAP, not above 0.2; to NSWC, not above 0.2.
For KTLC, the “one-hybrid fitness for binding NBS DNA” value is not above 0.2.
AYDC: the “one-hybrid fitness for binding NBS DNA” value is not above 0.2.
To CTWG belongs not above 0.2.
TCAS: the “one-hybrid fitness for binding NBS DNA” value is not above 0.2.
As for MAFC, the figure is not above 0.2.
As for ILKA, the figure is not above 0.2; as for AMKP, not above 0.2.
